# Test results taken from PMC4336329 (PLoS ONE, 2015).
# Out of some 310,000 compounds screened, about 2,200 (0.71%) showed an effect of 50% or more. The effect is printed as a negative number. Some of the results follow.
# Target: human ether-à-go-go-related gene (hERG) potassium channel (human, UniProt Q12809)
# Experiment: primary screen, population patch clamp on CHO cells stably expressing hERG
# Sequence of human ether-à-go-go-related gene (hERG) potassium channel (Q12809 whole entry, looked up): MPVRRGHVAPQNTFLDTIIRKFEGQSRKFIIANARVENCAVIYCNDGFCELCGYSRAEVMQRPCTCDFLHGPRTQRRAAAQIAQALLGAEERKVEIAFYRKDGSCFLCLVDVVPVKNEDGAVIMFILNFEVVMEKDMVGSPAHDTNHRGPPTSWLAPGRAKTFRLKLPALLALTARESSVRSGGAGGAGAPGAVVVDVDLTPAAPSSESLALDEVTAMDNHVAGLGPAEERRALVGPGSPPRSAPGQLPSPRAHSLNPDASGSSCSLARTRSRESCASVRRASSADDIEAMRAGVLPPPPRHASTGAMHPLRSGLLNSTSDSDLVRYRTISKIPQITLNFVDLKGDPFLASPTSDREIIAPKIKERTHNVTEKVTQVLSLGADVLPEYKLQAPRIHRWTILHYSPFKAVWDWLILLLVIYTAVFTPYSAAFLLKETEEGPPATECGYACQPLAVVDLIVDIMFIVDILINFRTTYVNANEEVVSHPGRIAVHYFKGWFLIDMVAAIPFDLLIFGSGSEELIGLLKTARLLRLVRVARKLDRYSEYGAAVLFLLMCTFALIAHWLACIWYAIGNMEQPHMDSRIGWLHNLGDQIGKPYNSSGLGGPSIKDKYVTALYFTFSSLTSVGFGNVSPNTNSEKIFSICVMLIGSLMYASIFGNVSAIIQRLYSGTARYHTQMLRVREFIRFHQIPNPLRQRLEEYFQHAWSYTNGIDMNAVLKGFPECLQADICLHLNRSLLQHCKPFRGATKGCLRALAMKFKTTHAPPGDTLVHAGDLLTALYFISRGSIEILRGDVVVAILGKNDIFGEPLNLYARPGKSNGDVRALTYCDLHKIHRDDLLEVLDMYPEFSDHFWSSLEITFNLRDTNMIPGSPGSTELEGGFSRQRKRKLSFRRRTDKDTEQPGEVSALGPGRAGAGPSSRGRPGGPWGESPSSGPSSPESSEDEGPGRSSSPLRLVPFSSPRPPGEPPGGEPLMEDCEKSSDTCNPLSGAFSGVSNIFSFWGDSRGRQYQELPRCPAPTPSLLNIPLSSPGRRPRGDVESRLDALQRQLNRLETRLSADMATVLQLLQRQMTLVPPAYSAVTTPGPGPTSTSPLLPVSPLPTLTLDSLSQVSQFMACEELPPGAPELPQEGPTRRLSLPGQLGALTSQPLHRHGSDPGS
row,SMILES,"hERG current change (%, negative = inhibition) at 1uM"
1,CCOC(=O)N1CCN(Cc2nc3cc(NC(C)=O)ccc3n2C)CC1,15.4%
2,COc1ccc(C(=O)C2CCCN(Cc3ccc(F)cc3F)C2)cc1F (stereo not drawn),3.8%
3,Cc1cc(C)nc(N2CCCC(CCC(=O)NCc3ccc(F)c(F)c3)C2)n1 (stereo not drawn),11.6%
4,O=C(/C=C/c1ccc(-c2ccc(F)cc2)o1)N1CCCC1,8.95%
5,COc1ccccc1C(=O)NCCC(=O)NC(C)c1ccc(-n2ccnc2)cc1 (stereo not drawn),7.09%
6,CCOC(=O)c1sc(=NC(=O)CCSc2ccccc2)n(C)c1C,6.7%
7,CSc1ccc(CNC(=O)C2Cc3cc(S(=O)(=O)N4CCCCC4)ccc3N2C(C)=O)cc1 (stereo not drawn),-1.82%
8,CCc1nc2ccccc2c(C(=O)OCC(=O)NCc2ccco2)c1C,1.64%
9,CCCCNC(=O)Cn1cnc([N+](=O)[O-])n1,12.7%
10,O=C1CCCC2=C1C(c1ccc(OS(=O)(=O)c3ccc(Cl)cc3)cc1)C1=C(CCCC1=O)O2,-9.34%
11,O=C(/C=C/c1ccco1)Nc1cc(Cl)ccc1C(=O)O,-1.79%
12,CC1(C)CC(=O)C=C(OC(=O)c2ccc(Cl)cc2)C1,15.8%
13,CC1(C)CC(=O)C(N=Nc2ccc(-c3ccccc3)cc2)=C(O)C1,9.63%
14,Nc1[nH]n2c(=O)cc(-c3ccccc3)nc2c1N=Nc1ccc2c(c1)OCO2,19.5%
15,Cc1ccc(S(=O)(=O)NCC2CCC(C(=O)NCc3cccnc3)CC2)cc1 (stereo not drawn),8.6%
16,O=c1c2ccccc2nc2c3ccccc3c(NCCO)nn12,13.8%
17,O=C(COc1ccc([N+](=O)[O-])cc1)N/N=C/c1ccccn1,4.6%
18,COc1ccccc1C1CC2CCC(C1OC(C)=O)N2Cc1ccccc1 (stereo not drawn),11.1%
19,COc1ccccc1C(=O)Nc1ccc(OCC(=O)N2CC(C)OC(C)C2)cc1 (stereo not drawn),3.91%
20,CCN(CC)CCNC(=O)C(=O)NCC1OCCN1S(=O)(=O)c1ccc(Cl)cc1 (stereo not drawn),11.1%
21,COc1ccc2nccc(C(N)=O)c2c1,-3.54%
22,COc1cc(OC)cc(C(=O)N[C@H](C(=O)NCc2ccccc2)C(C)C)c1,6.55%
23,O=S(=O)(c1ccccc1)c1nc(-c2ccccc2)oc1N1CCOCC1,6.92%
24,O=C(COC(=O)c1ccc(S(=O)(=O)N2CCOCC2)cc1)Nc1nc(-c2ccccc2)cs1,-2.32%
